Source: article PMC12136788
Some of the results follow.

B1: chr17:57743871:57743872:+_ENSG00000141367_ENST00000269122|hu_hu|FALSE|FALSE (ssRNA)
RNA: GGGAGUUCUACAGUCCGACGAUCCAGUAGGCCAGCCUUUUCACACAGUUGAGCAAUAUGAGCCCGGUCAUAAUGUGUGAACAUCUGAUUGCCUAGAAUAGCAUCUGCAACUUGAGGCGCAUGCAUAAGGUUCAUCUCAAGUAACAACAGAGGAUUGAGCAUCA
B2: 90616086_90621556_925_3pUTR_ENSMUSG00000019961_ENSMUST00000072239|mouse|control|control (ssRNA)
RNA: GGGAGUUCUACAGUCCGACGAUCCCUGUUGAAGAUCCACUCGUCCAUUCAGUCUCAGUUACUCCAGCUUGAGAAUAGCUCUGAUUGUGCUCAGUCCUUCUCUGCUUCAGUGUGACUGGCGUCUUGGCUCUGCCCUUUAGCGGCCAACAGAGGAUUGAGCAUCA
B3: chr5:132412388:132412389:+_ENSG00000170606_ENST00000304858|hu_mus|FALSE|FALSE (ssRNA)
RNA: GGGAGUUCUACAGUCCGACGAUCUUUAGAUUUUAUGUCUAGCUUGUAUUUCUUUCCAAAUUCUUCACAGAAGUGAUUUACCAACACCUCAUCAAAUUUUCUGCCUCCCAAUGUUGUAUCAAAAGCUGUGGCCAAAACUUUCAGCAACAGAGGAUUGAGCAUCA
B4: chr3:10015032:10015033:+_ENSMUSG00000027533_ENSMUST00000029046|mus_mus|mus_mus_mus_hu_True|18_68 (ssRNA)
RNA: GGGAGUUCUACAGUCCGACGAUCGUUUUUACCAUCACAAGUGAUGAUACAAUCUGGCUUGGCCAUUGCAGCCAUCUUUCGCAAAGCUAUUCCCACUCCUAGCUCCUUCAUGUAUUCCUCAAAGCCGUUGCUGUCCACCAGGCGCAACAGAGGAUUGAGCAUCA
B5: chr1:78482781:78482782:+_ENSG00000162616_ENST00000370763|hu_hu|FALSE|FALSE (ssRNA)
RNA: GGGAGUUCUACAGUCCGACGAUCUGUAGUGGUAGUUCAUUCUUUUUAGGGAAAUUACAUAAAGUACAUAUAGAAUAUUAUUAGUAAGUUAUAGAAGACUGUAUAACUGGAAAAUUAAUUCCAAGUAACAGCAUUUCCUCUAAACAACAGAGGAUUGAGCAUCA
B6: chr8:109707966:109707967:+_ENSMUSG00000031924_ENSMUST00000034400|mus_mus|motif|central (ssRNA)
RNA: GGGAGUUCUACAGUCCGACGAUCAAUUUACUUAAAAAGAAAAAUGGGAAAAGAUUCAUAACCUGACUGCUGUUCCCUUAACGGUAUCUACUAUGAAUUCAAAUUAUGAGAAAUCAUGUACUGUCCCCAAAGGCCAUGUCACUACAACAGAGGAUUGAGCAUCA
B7: chr5:136384420:136384421:-_ENSMUSG00000051391_ENSMUST00000055808|mus_mus|motif|central (ssRNA)
RNA: GGGAGUUCUACAGUCCGACGAUCUACGACGGCUACAUAAUGACUCACAUUCAUGAAUAUUCCAUCACUGAGGAAACUGCGGAGAAUGGUCCGUGUGCGAAAUAAUUCCUUAGCGAAACACGGAGUUGGGGGGGAAAAAAUCACCAACAGAGGAUUGAGCAUCA
B8: 79703920_79729941_136_5pUTR_ENSG00000039319_ENST00000505560|human|control|control (ssRNA)
RNA: GGGAGUUCUACAGUCCGACGAUCUAAUUCUUGUAUGCCUCUGGUCUGGAACAGAAACUCCACCAAAUAAGCCCGAGAAACCUCACAGGAAUCUCCCUACAGCCCCUGCGGAGCUUUUUGGGAACUCGACACGACGUCGCGCUGCAACAGAGGAUUGAGCAUCA
B9: chr1:60041781:60041782:+_ENSMUSG00000041040_ENSMUST00000036540|mus_hu|mus_mus_mus_hu_False|18_68 (ssRNA)
RNA: GGGAGUUCUACAGUCCGACGAUCAAGUUUACAAUAGUAAAGUAAAUGCAGUAGUGGCAAAUUUUCUUUACUUUAGUUUCACAAAAGAAAAUCUUUAUAACCCAGUCCUAGUCUUGGCAGAGAAAGCAGCUAUAAAUUCUGACUCAACAGAGGAUUGAGCAUCA
B10: chr15:66169770:66169771:+_ENSG00000103769_ENST00000567671|perfect_dup|FALSE|FALSE (ssRNA)
RNA: GGGAGUUCUACAGUCCGACGAUCGUCCCAUAUCUGUGCCUUUAUUGUUUUCCCAUCAACCUGGAUGCUUCUUGUUGCAAACUCUACUCCAAUGGUACUCUUGCUUUCCAGAUUAAACUCAUUUCGAGUAAAUCGAGACAGGAGCAACAGAGGAUUGAGCAUCA
B11: chr12:12974248:12974249:+_ENSG00000213782_ENST00000358007|hu_hu|FALSE|FALSE (ssRNA)
RNA: GGGAGUUCUACAGUCCGACGAUCCAGGGCUUCAAACUGCUCUGAGAUCUGAAAGGCCAGCUCCCGAGUCGGGGUAAGAACUAGGGCAAACAAACGCUGCGGGGUCUCCAGCAGUGCGUUUAGAAUGGGCAAAGCAAAGGCGCCCAACAGAGGAUUGAGCAUCA
B12: chr8:81716360:81716361:+_ENSMUSG00000071064_ENSMUST00000098614|mus_mus|FALSE|FALSE (ssRNA)
RNA: GGGAGUUCUACAGUCCGACGAUCCUAAGCAGGCCCCUCAUCCACGGCUGGAUGUCAGGUGGGGAGGGAAGCAGGGCCCUGCUAGGUUUGGAGAGGGAGGCUGCGAAGGUAUAAGGAGCUGAUGAUGUGGACUGUUCAGUCUCUCAACAGAGGAUUGAGCAUCA
B13: chr6:114281168:114281169:-_ENSG00000196591_ENST00000368632|hu_hu|hu_hu_hu_mus_True|78_88 (ssRNA)
RNA: GGGAGUUCUACAGUCCGACGAUCUUCCAUUUUUCGGUAUAAACCAUAAUUUAACAGCAAGUUAUGGGUCAUCCGGAUUCUAUGAGGCUUCAUGGGAUGACCCUGGCCAUAAUAAUAAUUGCCAAUAUCACCAUCAUAGUAGUACAACAGAGGAUUGAGCAUCA
B14: chr7:149068622:149068623:-_ENSMUSG00000025139_ENSMUST00000001950|mus_hu|mus_mus_mus_hu_False|8_98 (ssRNA)
RNA: GGGAGUUCUACAGUCCGACGAUCGUGAGGCCUCUGAGUGAGGUUCCUGGUCUGUCCUGGGUUAGAGUUGUUAAUAUCACGGAACAUACCAUCUAGAACGUUCCAGUCCCGCCUGACACCUUCAUUCGCAAGAGGGCAGAAAUCCAACAGAGGAUUGAGCAUCA
B15: chr3:197553776:197553777:+_ENSG00000186001_ENST00000438796|hu_hu|FALSE|FALSE (ssRNA)
RNA: GGGAGUUCUACAGUCCGACGAUCGCAUGAGAAGUCUAACCGUAUCAAAGGCAACUCCGCCAGCUCUUCAGGCAAAUGUACUAGGUGAUUUCUUCUUACAUUAAGGUCUCUCAAGGCCUCCAGGUUACCAAUUUGGGAAGGUAUCAACAGAGGAUUGAGCAUCA
B16: chr6:57672499:57672500:+_ENSMUSG00000062190_ENSMUST00000050077|mus_hu|FALSE|FALSE (ssRNA)
RNA: GGGAGUUCUACAGUCCGACGAUCUCGGAGCAGGUAGGUUUGGUCACAUGUGACCCGGUACAACUGCAGGUACAAAAGGGCUAUGCCUGUCCAGCCAGUAUAAGCAGAGCAGUCAUGGGGAUCAGCUGUCUUCAGCCCUUCUUCCAACAGAGGAUUGAGCAUCA
B17: chr8:95500983:95500984:-_ENSG00000164944_ENST00000437199|hu_hu|motif|central (ssRNA)
RNA: GGGAGUUCUACAGUCCGACGAUCAAAAGGAUUUUUAUCGUGUAAAGGAGCGUACAUGACGACCUCUACCACUGCCUCCACGGACAAACUUUCCUCUUGAGCCUCCACUGCCGCUAUUUGCACUAGCCCAGGAAGGUCCAAGUCCAACAGAGGAUUGAGCAUCA
B18: chr1:60041781:60041782:+_ENSMUSG00000041040_ENSMUST00000036540|mus_hu|mus_mus_mus_hu_False|38_68 (ssRNA)
RNA: GGGAGUUCUACAGUCCGACGAUCAAGUUUACAAUAGUAAAGUAAAUGCAGUAGUGGCAAAUUUUCUUUACUUUAGUUUCACAAAAGAAAAUCUUUAGAUCUCAGUUCUAGUCUUGGACAUAGUGAAAGCUAUAAAUUCUGACUCAACAGAGGAUUGAGCAUCA
B19: 20712000_20712939_4853_CDS_ENSMUSG00000004099_ENSMUST00000004202|mouse|control|control (ssRNA)
RNA: GGGAGUUCUACAGUCCGACGAUCUGCAGCUGAUGCGCUCUCCCGAGCACUGGACAGCAGGCAGAGCUUAAUCUCCAGGCCAAUGGCUUUGGCCAGGGGUGGUGGCACAGCAUUACCCACCUGCCGGUGUCUGUCCAGGAUGUUCAACAGAGGAUUGAGCAUCA
B20: 193056109_193056229_3668_3pUTR_ENSG00000116747_ENST00000432079|human|control|control (ssRNA)
RNA: GGGAGUUCUACAGUCCGACGAUCAUUUCCUAAUAACUCAAUAAGGUAAAAGUCUUAAAUAAUUUUAUUUUAUCCUCUACUCUUCUGAGACCAUGUAUUCCCAUGUUGUGGGGAAAUAAAUUCUGGCACAGGAAUGAAGAGACCCAACAGAGGAUUGAGCAUCA
B21: chr9:59240146:59240147:-_ENSMUSG00000025234_ENSMUST00000171975|mus_hu|FALSE|FALSE (ssRNA)
RNA: GGGAGUUCUACAGUCCGACGAUCGGGGGAUUAGGUUGGGACAGGUUAAUUCAUGAGCUGUAGCAACAAAACUCCCUGCUGUACCCCUUAAUCAGGUCAUGGCAUUAGUCAGAGCUUGACCUCCCUUGUCCCUGAUCAAGAGCACAACAGAGGAUUGAGCAUCA
B22: chr15:100049815:100049816:+_ENSMUSG00000023026_ENSMUST00000100203|mus_mus|FALSE|FALSE (ssRNA)
RNA: GGGAGUUCUACAGUCCGACGAUCAAUGAGUUAAUAGAACACUGUCCAGCCAGAUGUUAAAUUUAAAAAUGUAUAUCUAACCUAAUUUCAAAUAAAUAAAAAAACCUUUAUACAUAAUUACACAGUACUAUAGUUUGAAUUGGACAACAGAGGAUUGAGCAUCA

molecular target: T1, UNK ZnF1-3 (human, UniProt Q9C0B0 31-174); assay: nsRBNS (natural sequence RNA bind-n-seq); RBNS binding buffer (assumed for nsRBNS): 25 mM Tris pH 7.5, 150 mM KCl, 3 mM MgCl2, 0.01% Triton X-100, 500 ug/ml BSA, 20 U/ml SUPERase-In, 4 C; UNK is unkempt and MSI1 is Musashi-1; names of the RNAs are library labels; protein concentration not given here; high values mean tight binding
T1 sequence: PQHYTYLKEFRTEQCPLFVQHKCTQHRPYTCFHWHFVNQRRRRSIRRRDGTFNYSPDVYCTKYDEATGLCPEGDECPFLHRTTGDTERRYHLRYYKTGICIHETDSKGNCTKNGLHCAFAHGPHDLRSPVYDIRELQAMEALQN

Binder | binding signal
B1 | 1.14 enrichment R
B2 | 0.574 enrichment R
B3 | 0.905 enrichment R
B4 | 0.775 enrichment R
B5 | 0.864 enrichment R
B6 | 1.77 enrichment R
B7 | 1.31 enrichment R
B8 | 1.23 enrichment R
B9 | 0.869 enrichment R
B10 | 0.655 enrichment R
B11 | 1.68 enrichment R
B12 | 1.49 enrichment R
B13 | 0.658 enrichment R
B14 | 0.851 enrichment R
B15 | 0.733 enrichment R
B16 | 0.866 enrichment R
B17 | 0.563 enrichment R
B18 | 0.473 enrichment R
B19 | 0.683 enrichment R
B20 | 0.936 enrichment R
B21 | 0.931 enrichment R
B22 | 2.06 enrichment R
